Reference: PubChem BioAssay AID504832 (National Center for Advancing Translational Sciences (NCATS), 2011)
Values joined by “and” are separate entries in the source; they are usually repeats but may differ in a detail not shown here. Identical values can stand only once. Screen size: about 310,000 compounds; about 18,000 (5.8%) were called active. Inconclusive means that the source gave no clear call. Such entries were picked first, then a sample of the others. Calls come from the whole dose curve; as a rule, active = well fitted inhibition curve with a large enough effect; inconclusive = small, poorly fitted or top-dose-only effect, or another doubt; inactive = no such curve, though single readings can be large or run the other way. Potencies of inconclusive entries are left out as doubtful fits.

experiment: Primary qHTS for delayed death inhibitors of the malarial parasite plastid, 48 hour incubation; conditions: P. falciparum luciferase growth in erythrocytes; series mostly up to 28.7 µM
In short: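 Read-out is firefly luciferase luminescence from an integrated reporter in P. falciparum, so falling signal marks reduced parasite growth. Infected erythrocytes were at 2% hematocrit and 0.1% parasitemia (final) in Albumax-supplemented RPMI 1640.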
% is set by controls: 0 for no effect and ±100 for the full control effect; potency is the fitted concentration of half-maximal effect; tags give direction and shape of the fitted curve.

Row | SMILES | Potency | activity change, negative = inhibition
1 | Cc1ccc(C(C)C)c(OCC(O)CN2CC(C)OC(C)C2)c1 (configuration not stated) | inconclusive [inhibitor, single point] | –
2 | O=C(Nc1ccccc1N1CCOCC1)C1=NN(c2c(F)c(F)cc(F)c2F)C(=O)CC1 | inconclusive [inhibitor, single point] | –
3 | COc1cc2c(ccc3cc(OC)c(OC)c(O)c32)cc1O | inconclusive [inhibitor, single point] | –
4 | CCC(NC(=O)COc1cc2c(c3oc(=O)c(C)c(C)c13)CCC(C)(C)O2)C(=O)O (configuration not stated) | – | inactive: 11.2% [at 0.00184 µM]
5 | O=C1CC(SC(=Nc2ccccc2)Nc2ccccc2)C(=O)N1c1cccc2ccccc12 (configuration not stated) | inconclusive [inhibitor, single point] | –
6 | Cc1c([N+](=O)[O-])c([N+](=O)[O-])nn1CC(=O)NCCc1ccccc1 | inconclusive [inhibitor, single point] | –
7 | COc1ccccc1OCc1nc(-c2ccc([N+](=O)[O-])cc2)no1 | inactive | –
8 | COc1cc2c(cc1OC)C(C)N(C(=O)c1cc3c(s1)-c1c(C)cccc1OC3)CC2 (configuration not stated) | inconclusive [inhibitor, partial curve] | –
9 | CCCCC1(C)NC(=S)N2N1C(=S)NC2(C)CCCC (configuration not stated) | inconclusive [inhibitor, single point] | –
10 | COc1ccc(Br)cc1C1CC(=O)C(C)C(c2cc(Br)ccc2OC)N1 (configuration not stated) | inconclusive [inhibitor, single point] | –
11 | CCCN1CCN(CCCNC(=O)c2cc3c(=O)oc4ccc(C)cc4c3s2)CC1 | inactive | –
12 | O=C(CN1CCN(S(=O)(=O)c2cc(Cl)ccc2Cl)CC1)Nc1ccc2c(c1)OCCO2 | inconclusive [inhibitor, partial curve] | –
13 | c1ccc(N/N=C(\Cc2ncc[nH]2)c2ccccc2)cc1 | inconclusive [inhibitor, single point] | –
14 | CNC(=O)C1CC(=O)N(CCc2ccc(OC)cc2)C(=Nc2ccc(OC)cc2)S1 (configuration not stated) | inconclusive [inhibitor, partial curve, poor fit] | –
15 | Cc1ccc(NC(=O)COC(=O)C2CC(=O)N(Cc3ccccc3)C2)cc1S(=O)(=O)N(C)C (configuration not stated) | inactive | –
16 | COc1cccc(NC(=O)[C@H](CC(C)C)NC(=O)N2CCn3c2nc2ccccc23)c1 | inconclusive [inhibitor, single point] | –
17 | CCOC(=O)C1(CCOc2ccccc2)CCN(Cc2ccc(C)s2)CC1 | active: 13.1 µM | –
18 | COc1ccccc1-c1nnc(NC(=O)c2ccc3c(c2)OCO3)s1 | inactive | –
19 | CC1(C)CC(=O)C2=C(C1)NC(Nc1nc3ccccc3o1)=NC2c1ccccn1 (configuration not stated) | inconclusive [inhibitor, full curve] | –
20 | CCOC(=O)C(NC(=O)c1ccccc1Cl)(Nc1sc2c(c1C(N)=O)CCC2)C(F)(F)F (configuration not stated) | inconclusive [inhibitor, single point] | –
21 | O=[N+]([O-])c1cccc(S(=O)(=O)N2CCc3ccccc3C2)c1 | inconclusive [inhibitor, single point] | –
22 | CSc1nnc(NC(=O)c2ccc(C)c(S(=O)(=O)N3CCOCC3)c2)s1 | inactive | –
23 | COc1ccccc1CN1CCC(CNS(=O)(=O)c2cc(-c3cc(C)no3)ccc2C)CC1 | active: 4.65 µM | –

Row | SMILES | Potency | activity change, negative = inhibition
24 | CCN1CC=C2C(C#N)=C(N)C(C#N)(C#N)C(CCc3ccccc3)C2C1 (configuration not stated) | active: 10.4 µM | –
25 | CSCCC1NC2(C(=O)Nc3ccc(Cl)cc32)[C@@H]2C(=O)N(C3CCCC3)C(=O)[C@H]12 (some centres not stated) | inconclusive [inhibitor, single point] | –
26 | CCOc1ccc(C(C)NC(=S)NCc2ccc(Cl)cc2)cc1 (configuration not stated) | inconclusive [inhibitor, single point] | –
27 | CC(C)[C@H](NC(=O)N1CCn2c1nc1ccccc12)C(=O)NC1CC1 | inactive | –
28 | CCOC(=O)c1c(C)[nH]c(C)c1C(=O)COC(=O)c1ccc(S(=O)(=O)N(CC)CC)cc1 | inconclusive [inhibitor, partial curve, poor fit] | –
29 | CCC(=O)N1CCN(c2ccc(NC(=S)NC(=O)C(C)C)cc2)CC1 | inconclusive [inhibitor, single point] | –
30 | C/C(=N\NC(=O)c1ccc2c(c1)OCO2)c1ccc(O)cc1 | inactive | –
31 | COC(=O)c1ccc(NC(=O)CCc2nnc3ccc(N4CCC5(CC4)OCCO5)nn23)cc1 | inactive | –
32 | CC(C)CN1C(=O)c2ccccc2C1(O)Cc1ccccc1 (configuration not stated) | inconclusive [inhibitor, single point] | –
33 | Cc1cccn2c(CN(C)CC3Cc4ccccc4O3)c(C(=O)N3CCCCC3)nc12 (configuration not stated) | inconclusive [inhibitor, partial curve, poor fit] | –
34 | CCOc1cc(C2CC(=O)N3CN(C4CCCCC4)CSC3=C2C#N)ccc1O (configuration not stated) | inconclusive [inhibitor, single point] | –
35 | Cc1ccc(-n2ccnc(SCC(=O)NC3CCCC3)c2=O)cc1Cl | inconclusive [inhibitor, single point] | –
36 | Cc1ccc(CNC(=O)[C@H](C)[C@H]2C[C@]2(C)[C@H](NC(=O)OCc2ccccc2)c2ccccc2)o1 | inconclusive [inhibitor, full curve, poor fit] | –
37 | CN1CC[C@H](CN2c3ccccc3Sc3ccccc32)C1 | active: 3.79 µM | –
38 | CCOc1ccc(/C=N/NC(=O)C(=O)N2CCCCCC2)c2ccccc12 | inconclusive [inhibitor, single point] | –
39 | COC(=O)c1ccc2c(=O)n(CCN3CCOCC3)c(=S)[nH]c2c1 | inactive | –
40 | COc1ccc(N(CC(=O)Nc2ccc3c(c2)OCO3)S(C)(=O)=O)c(OC)c1 | inconclusive [inhibitor, partial curve, poor fit] | –
41 | CCOC(=O)c1cc(-c2ccccc2)nn1CCC#N | inconclusive [inhibitor, single point] | –
42 | CCOc1ccc2c(c1)nc(SCC(=O)c1ccc(Br)s1)n2C | inconclusive [inhibitor, single point] | –
43 | Cc1cc(NC(=O)/C(C#N)=C/c2ccc(-c3cccc(C(F)(F)F)c3)o2)n(-c2ccccc2)n1 | inconclusive [inhibitor, partial curve, poor fit] | –
44 | Cc1noc(C)c1S(=O)(=O)N1CCC(C(=O)N2CCN(Cc3ccc4c(c3)OCO4)CC2)CC1 | inconclusive [inhibitor, partial curve, poor fit] | –
45 | O=C(O)c1ccc2c3c(cccc13)C(=O)N(c1cccc3ccccc13)C2=O | inactive | –
46 | COCCNc1c2c(nc3ccccc13)CCC2 | inconclusive [inhibitor, single point] | –

Row | SMILES | Potency | activity change, negative = inhibition
47 | CCCC(=O)Nc1ccc(C(=O)Nc2cccc(OC)c2)cc1 | inactive | –
48 | COc1cccc(-c2nc(CS(=O)(=O)CC(=O)NCCc3ccccc3)c(C)o2)c1 | inconclusive [inhibitor, single point] | –
49 | CSc1ccc(CCNS(=O)(=O)c2csc(C(N)=O)c2)cc1 | inconclusive [inhibitor, partial curve] | –
50 | CCc1ccc(C(=O)COC(=O)c2ccccc2OC)cc1 | inactive | –
51 | CCOP(=O)(c1ccccc1)c1nc(-c2ccccc2C)oc1NCc1ccccc1 (configuration not stated) | active: 11.7 µM | –
52 | COc1ccc(OC)c(S(=O)(=O)NC(C)c2ccc(-n3ccnc3)cc2)c1 (configuration not stated) | inconclusive [inhibitor, single point] | –
53 | O=C(c1cccs1)N(Cc1ccco1)Cc1cc2ccccc2[nH]c1=O | inconclusive [inhibitor, partial curve, poor fit] | –
54 | O=C1NC(=O)N(c2ccc(Cl)cc2)C(=O)/C1=C\c1ccc(Sc2nc3ccccc3[nH]2)o1 | inactive | –
55 | CC(C)(C)NC(=O)CN(Cc1ccc2c(c1)OCO2)C(=O)CNC(=O)c1cccs1 | inactive | –
56 | COc1ccc(C(=O)c2c3ccccc3[n+]([O-])n2Cc2ccc(C(N)=O)cc2)cc1 | inconclusive [inhibitor, partial curve, poor fit] | –
57 | Cc1sc2ncn(-n3c(C)ccc3C)c(=O)c2c1C | inconclusive [inhibitor, single point] | –
58 | O=C(NCc1ccccc1)C1(CC2CC(c3ccccc3)=NO2)CCNCC1 (configuration not stated) | active: 11.7 µM | –
59 | CC(=O)N1c2ccc(S(=O)(=O)N3CCCC3)cc2CC1C(=O)NC(C)C (configuration not stated) | inactive | –
60 | Cc1ccc(C2C(C#N)=C(N)SC(N)=C2C#N)o1 | inactive | –
61 | O=C(O)c1cccc(-n2cccc2/C=C/[N+](=O)[O-])c1 | inactive | –
62 | CCN(CC)C(=O)CSc1nnc([C@H](Cc2c[nH]c3ccccc23)NC(=O)OC(C)(C)C)o1 | inconclusive [inhibitor, partial curve] | –
63 | CN1C2CCC1CC(OC(c1ccccc1)c1ccccc1)C2 (configuration not stated) | active: 9.28 µM and active: 12 µM | –
64 | O=C(Cn1cnc2ccccc2c1=O)Nc1ccc(S(=O)(=O)N2CCOCC2)cc1 | inactive | –
65 | Cc1cccc(NC(=O)Cn2c(=O)n(CCc3c[nH]c4ccccc34)c(=O)c3cccnc32)c1 | inconclusive [inhibitor, single point] | –
66 | COc1ccc(Br)cc1CN1CCCC(C(=O)N2CCCCCC2)C1 (configuration not stated) | inconclusive [inhibitor, partial curve, poor fit] | –
67 | COc1ccc(S(=O)(=O)N(CC(=O)O)c2ccccc2)cc1 | inconclusive [inhibitor, single point] | –
